# Experimental data taken from ChEMBL document CHEMBL1201862, “PubChem BioAssay data set” (2004).
# Tested on: NCI-H322M
# Experiment: NCI tumour cell line growth inhibition, 48 h
row,Structure (SMILES),GI50
1,CC(=O)Nc1ccc(C2CC(c3ccc([N+](=O)[O-])cc3)=Nc3ccccc3[S+]2[O-])cc1 (stereo unspecified),inactive: 29.1 µM
2,Nc1nc(Br)nc2ncn(C3CC(O)C(CO)O3)c12 (stereo unspecified),inactive: > 100 µM
3,CS(=O)(=O)OCCN1CCC2(CC1)SSC1(CCN(CCOS(C)(=O)=O)CC1)S2,inactive: 39.4 µM
4,CN1CCN(/C(N)=C(\C#N)C(=O)Nc2ccccc2)CC1,inactive: > 100 µM
5,CC(=O)OC1COC(n2c(-c3ccc(Cl)cc3)cc(-c3ccccc3)c(C#N)c2=S)C(OC(C)=O)C1OC(C)=O (stereo unspecified),inactive: 29.6 µM
6,O=C(O)CCSC(=S)Nc1ccc([N+](=O)[O-])cc1,inactive: > 90.6 µM
7,COC(=O)c1cc2c(cc1Cl)Sc1nnc(Nc3ccc(C)cc3)n1S2(=O)=O,inactive: 10.2 µM
8,O=c1oc2ccccc2c(O)c1C(C/C(CCN1CCCC1)=N/O)c1ccccc1 (stereo unspecified),inactive: > 100 µM
9,CCOP(=O)(CCC(O)CNc1nc(N)nc(Cl)c1/N=N/c1ccc(Cl)cc1)OCC (stereo unspecified),inactive: 15 µM
10,Cc1ccc(/N=N/c2c(C)c(C#N)c(=S)n(C3OC(CO)C(O)C(O)C3O)c2-c2ccccc2)cc1 (stereo unspecified),inactive: > 10 µM
11,Cc1ccc(S(=O)(=O)NC(=O)NCCc2ccccc2)cc1,inactive: > 100 µM
12,Cc1ccc(/C=C2\CN(C)CC3C(c4ccc(C)cc4)=C(C#N)C(=O)NC23)cc1 (stereo unspecified),inactive: > 50 µM
13,Cc1cc(C)nc(NS(=O)(=O)c2ccc(Nc3c4ccccc4nc4c(C(=O)Nc5ccc(S(N)(=O)=O)cc5)cccc34)cc2)n1,inactive: 79.6 µM
14,COC(=O)C(CCC1(C)OCCO1)=[N+]=[N-],inactive: > 100 µM
15,CC(=O)OCC1OC(n2c3c(c(-c4ccc(Cl)cc4)c(C#N)c2=S)CCCC3)C(OC(C)=O)C(OC(C)=O)C1OC(C)=O (stereo unspecified),inactive: 78.2 µM
16,COC(=O)C/N=C1\NC(=S)N(Cc2ccc(OC)cc2)C12CCCC2,inactive: > 100 µM
17,COC(=O)/C=C\[C@H]1[C@H](C)N1S(=O)(=O)c1ccc(C)cc1 (stereo partly specified),inactive: > 100 µM
18,CN1C(=O)C(C)(C)NS1(=O)=O,inactive: > 100 µM
19,Clc1ccc(CCn2cncn2)cc1,inactive: > 100 µM
20,c1cn(C23C4C5C6C4C2C6C53)cn1 (stereo unspecified),inactive: > 100 µM
21,COC(=O)c1c2c(cc3c1CC1(Cc4cc5c(c(C(C)=O)c4C1)CCC5)C3)CCC2 (stereo unspecified),inactive: > 100 µM
22,CN(C)CC1CCCC/C1=N/OC(=O)c1ccc(Cl)cc1 (stereo unspecified),inactive: > 100 µM
23,COc1cc(CCCOC2OC(COC3OCC(O)C(O)C3O)C(O)C(O)C2O)cc2cc(-c3ccc4c(c3)OCO4)oc12 (stereo unspecified),inactive: > 175 µM

row,Structure (SMILES),GI50
1,NNC(=S)N/N=C(/C(=O)Nc1cc(Cl)ccc1Cl)C1C(=O)Nc2ccccc2[S+]1[O-] (stereo unspecified),inactive: > 100 µM
2,Cn1c(=O)c2nc[nH]c2n(C)c1=O [THEOPHYLLINE],inactive: > 100 µM
3,CCCN(CCC)C(=O)C(=O)c1c(N)[nH]n(-c2ccccc2)c1=O,inactive: 74.8 µM
4,COc1cc(C2c3cc4c(cc3OC(C)(N3CCCC3)C2C)OCO4)cc(OC)c1OC (stereo unspecified),active: 0.313 µM
5,COC(=O)C(=O)CC(=O)CCn1ncc(Cl)c(Cl)c1=O,inactive: 16.3 µM
6,N#CCCN(CCC#N)c1ccc(C(/N=N/c2ccccc2)=N\c2ccccc2)cc1,inactive: > 100 µM
7,CCP(C)(=O)CC,inactive: > 100 µM
8,O=C(O)Cc1cc(=O)[nH]c2c1/C(=N/O)CCC2,inactive: > 100 µM
9,COc1cc(NC(C)=O)ccc1C(=O)N/N=C/c1ccco1,inactive: > 100 µM
10,O=c1c2ccccc2[nH]c(=S)n1-c1ccc(/N=N/c2cccc3cc(O)ccc23)cc1,inactive: > 100 µM
11,CC(=O)OC1O[C@@H](C(C)(C)O)CC[C@@H]1[C@H]1CC[C@@]2(C)C3=C(CC[C@]12C)[C@@]1(C)C[C@@H](OC(=O)CC(C)(O)CC(=O)O)[C@H](OC(C)=O)C(C)(C)C1CC3 (stereo partly specified),inactive: 17.5 µM
12,COc1ccccc1-c1nc(-c2ccccc2O)n[nH]1,inactive: > 100 µM
13,Nc1nc(Cl)c(/C=N\O)c(NCC2(CO)CC(=O)C2)n1,inactive: 51.8 µM
14,CON(C)C(=O)C1CCCO1 (stereo unspecified),inactive: > 100 µM
15,COc1cc2c(cc1OC)C13CCN4C=C5CCOC6CC(=O)N2C1C6C5CC43 (stereo unspecified),inactive: > 100 µM
16,OCCNc1ncnc2[nH]cnc12,inactive: > 100 µM
17,Cc1ncc([N+](=O)[O-])n1CCN(C)CCCCn1ccnc1[N+](=O)[O-],inactive: > 100 µM
18,CCCCCn1cc2c3c(cccc31)C1C=C(C)CN(C)[C@@H]1C2.Cc1ccc(C(=O)OC(C(=O)O)C(OC(=O)c2ccc(C)cc2)C(=O)O)cc1 (stereo unspecified),inactive: 9.27 µM
19,C=C[C@@H]1C[C@]2(C(=O)OC)Cc3nc4ccccc4nc3CC(C(=O)OC)=C2O1,inactive: > 100 µM
20,Oc1cc(Cl)cc2cccnc12,inactive: 20.2 µM
21,C[C@@H]1CC[C@]2(C)C3(C)CC[C@]2(OC3=O)[C@@]12CC(c1ccoc1)OC2=O (stereo partly specified),inactive: > 100 µM
22,c1ccc([P+](CCCCCCCC[P+](c2ccccc2)(c2ccccc2)c2ccccc2)(c2ccccc2)c2ccccc2)cc1,inactive: 31.5 µM
23,CC1CC(Br)C(=O)O1 (stereo unspecified),inactive: > 100 µM

row,Structure (SMILES),GI50
1,CCOC(=O)/C(=C\c1ccc(CO)o1)P(=O)(OCC)OCC,inactive: 50.5 µM
2,CC(C)(C)OC(=O)NCC(=O)OCc1ccccc1,inactive: > 100 µM
3,CC(=O)OCC1=C(CCC#N)N2C(=O)C(NC(=O)Cc3cccs3)C2[S+]([O-])C1 (stereo unspecified),inactive: > 100 µM
4,COC(=O)C1(c2ccc(OC)cc2)NC(c2ccccc2)C2C(=O)N(c3ccc(OC)cc3)C(=O)C21 (stereo unspecified),inactive: > 100 µM
5,C=C(Cl)[C@@](Cl)(CBr)CC[C@@H](Br)C(C)(C)Cl,active: 0.407 µM
6,Cc1nc2sccn2c1C(=O)OCCOCCOCCOCCOC(=O)c1c(C)nc2sccn12,inactive: 72.8 µM
7,Cc1cc(C)nc(NS(=O)(=O)c2ccc(Nc3c4ccc(Cl)cc4nc4c(C(=O)Nc5ccc(S(N)(=O)=O)cc5)cccc34)cc2)n1,inactive: 23.7 µM
8,CC(C)(C)c1cc(/C=C2/NC(=O)NC2=O)cc(C(C)(C)C)c1O,inactive: 15.8 µM
9,COc1ccc2nc3c(nc2c1)C(C)(C)C=C3c1ccc(Br)cc1,inactive: > 100 µM
10,CC1=NNC(=O)C1C1(C(=O)O)CC(c2c[nH]c3ccccc23)=NC(=S)N1 (stereo unspecified),inactive: 55.8 µM
11,Cc1c(-c2ccc(O)c(O)c2)oc(=O)c2c(O)cccc12,inactive: 19.6 µM
12,CCOC(=O)[C@@]12NN=N[C@@H]1[C@H]1CO[C@H](c3ccccc3)N1C2=O,inactive: 15.9 µM
13,COc1ccc2c(c1)C(=O)OCCC2,inactive: > 100 µM
14,C=CCN1C(=O)CC2[C@@H]3CCc4cc(O)ccc4C3CC[C@]2(C)C1=O (stereo partly specified),inactive: > 10 µM
15,O=C(N/N=C/c1ccc(Cl)cc1)c1c(Cl)c(Cl)c(Cl)c(Cl)c1-c1nc2ccccc2[nH]1,inactive: > 100 µM
16,c1ccc2c(c1)[nH]c1c2cc[n+]2cc3c(cc12)CCCC3,inactive: 2.23 µM
17,Cc1cc(=O)oc2cc(OCc3nc4ccccc4c(=O)[nH]3)ccc12,inactive: > 100 µM
18,COc1cc(C2SCC(=O)N2c2ccc(-c3ccc(-n4c(-c5ccccc5)nc5ccccc5c4=O)cc3)cc2)cc(OC)c1OC (stereo unspecified),inactive: 35.6 µM
19,Cc1ccc(C2=C(C#N)C(N)OC3=C2COc2ccccc23)cc1 (stereo unspecified),inactive: 2.99 µM
20,Cc1oc2c(c1C)S(=O)(=O)C(C#N)=C(N(C)C)N2,inactive: > 100 µM
21,COc1cc(-c2ccccc2N)c2cccnc2c1OC,inactive: 7.28 µM
22,c1ccc(Cc2cc(-c3ccccc3)[nH]n2)cc1,inactive: 12.5 µM
23,CCOC(=O)NN(C(=O)OCC)C(=C(c1ccccc1)N1CCOCC1)N(NC(=O)OCC)C(=O)OCC,inactive: > 100 µM

row,Structure (SMILES),GI50
1,CC(Cc1cccc2c1Nc1ccccc1S2)N(C)CCO (stereo unspecified),inactive: > 100 µM
2,CCC(=O)N1C(=O)C(CC)(CC)C(=O)N1C(=O)CC,inactive: > 100 µM
3,O=C(NNC(=S)Nc1ccc(Br)cc1)c1cc(-c2ccccc2)nc2ccccc12,inactive: 24.3 µM
4,O=C1c2ccccc2C(=O)N1c1ccc(OCCN2CCCCC2)cc1,inactive: > 100 µM
5,C=C1CC(C)(COc2ccc3ccc(=O)oc3c2)OC1=O (stereo unspecified),inactive: 13.3 µM
6,CN(CCN(C)C(=O)CCOS(C)(=O)=O)C(=O)CCOS(C)(=O)=O,inactive: > 100 µM
7,CCOC(=O)c1c(SCCN(CC)CC)n(-c2ccccc2)c(=S)n(-c2ccccc2)c1=O,inactive: 17.6 µM
8,COc1cc(C2C3=C(COC3=O)Oc3cc4c(cc32)OCO4)cc(OC)c1O (stereo unspecified),active: 0.0223 µM
9,COc1cc2c(cc1OC)-c1cc3ccccc3c(=O)n1CC2,inactive: 33.7 µM
10,N#Cc1c(N2CCOCC2)ncn(-c2ccccc2)c1=O,inactive: > 100 µM
11,Cc1ccc(O)c(C(=O)/C=C/c2ccccc2)c1,inactive: > 100 µM
12,Cc1cc(C)nc(NS(=O)(=O)c2ccc(NC(=O)c3ccc(Cl)c4c(Nc5ccc(S(=O)(=O)N=C(N)N)cc5)c5ccccc5nc34)cc2)n1,inactive: 27.9 µM
13,COc1cc2c(c3c1c(=O)c1ccccc1n3C)C=CC1(CCCC1)O2,inactive: 14.6 µM
14,COC(=O)CCC1=CCC2(SC)C(=O)Nc3cccc1c32 (stereo unspecified),inactive: > 100 µM
15,CC(C)(O)CCC(O)C(C)(O)C1CCC2(O)C3=CC(=O)C4(O)CC(O)C(O)CC4(C)C3CCC12C.CC(C)(O)CCC(O)C(C)(O)C1CCC2(O)C3=CC(=O)C4CC(O)C(O)CC4(C)C3CCC12C (stereo unspecified),inactive: > 100 µM
16,O=C1CCCC/C1=C(\Br)I,inactive: 17.7 µM
17,O=C(NNCc1ccc(Cl)cc1)Nc1cccc2ccccc12,inactive: > 100 µM
18,Nc1cc(N2CCOCC2)nc(=O)n1-c1ccc(Cl)cc1,inactive: > 100 µM
19,CC1CCCc2c(-c3ccc(Cl)cc3)nc(N)c(C#N)c21 (stereo unspecified),inactive: 57.5 µM
20,CC1OC(CC(=O)O)CC2=C1C(=O)c1c(O)cccc1C2=O (stereo unspecified) [NANAOMYCIN],inactive: 1.62 µM
21,Clc1ccc(-c2ccc(-c3nnc(CCc4nnc(-c5ccc(-c6ccc(Cl)cc6)o5)o4)o3)o2)cc1,inactive: > 100 µM
22,CN(C)/C=N/S(=O)(=O)c1nn2c(C=O)c(-c3ccc(Cl)cc3)nc2s1,inactive: 13 µM

#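 These data come from cells grown in 96-well plates and exposed to compound for 48 hours at five concentrations. The concentration for 50% growth inhibition is given as GI50.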 Active and inactive are the calls of the source. No stated cut-off is given here; in the data, active = GI50 up to about 1.1 µM and inactive = higher.
